Experimental data as given in the supplement of paper PMC11383711.
Some of the results follow. Binding of human antibodies (heavy:light variable regions, tested as scFv in one mRNA-display pool) to influenza hemagglutinin, with or without the stem antibody CR9114 bound first. Score = (mean enrichment − median) / interquartile range of that screen; higher = more enriched, 0 = typical non-binder. Active = above the paper's cut-off per screen: stems 28; unblocked H1 Solomon Islands 5, H1 Michigan 3, H3 5, H5 19, H7 2.85, both B 5; blocked 9, 7, H5 10, H7 10, B Phuket 10, B Lee 11.5. Scores are scaled within each screen and are no affinities; replicates correlate at about 0.6 to 0.9, and antibodies rare in the pool are noisier.

Key:
[1] = target: H1 HA stem construct (mini-HA #4900); assay: mRNA display binding score; higher = more enriched on the antigen; conditions: antigen blocked with: nothing
Procedure: (§1)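 A pool of natively paired antibodies, displayed as scFv on mRNA, was selected once on antigen-coated beads and sequenced before and after; two replicates.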

[2] = target: H3 HA stem construct (H3ssF); assay: as above; conditions: antigen blocked with: nothing
Procedure: as §1

B1: W85-1D12 (protein)
chain 1: QVQLQESGPGLVQPSETLSLTCTVSGGSSSGHYWSWIRQPPGKGLEWMGHVYNSGSTNYNPSLKSRVTISVDTSKSQFSLKLTAVTAADTAVYYCARGAGYDYAWGSYRWNYFDNWGQGTPVTVSS
chain 2: DIQMTQSPSSLSASVGDRVTITCQASQDISNYLNWYQQKPGKAPRVLIYDASNLETWVPSRFTGRGSGTDFSVSISSLQPEDIATYYCQQYHNFPYTFGQGTNLESK
Question: B1 was tested. Which “mRNA display binding score” value [1] did it give?
Answer: The value was inactive: -0.0843.

Question: And the “mRNA display binding score” value [2]?
Answer: Its value is inactive: -0.106.

B2: 01.q.01 (protein)
chain 1: QVQLQESSPGLVKPSQTLSLKCTVSGGSVSGGRYSWNWLRQPAGKGLEWIGHIYTTGTINYNPSLRSRVTISVDTSKNQFSLKLSSMTAADTAVYFCARAHLPDVGHYYGLDVWGQGTTVTVSS
chain 2: DIQLTQSPSSLSASVGDRVTITCRASQGISSYLAWYQQKPGKAPKLLIYAASTLQSGVPSRFSGSGSGTYFTLTISSLQPEDFATYYCQQLNRDLTFGGGSKVEIK
Question: With B2 as the binder, how does the “mRNA display binding score” value [1] read?
Answer: Its value is inactive: 1.3.

Question: And the “mRNA display binding score” value [2]?
Answer: The value was inactive: 2.49.

B3: 042-10-2C02 (protein)
chain 1: EVQLVESGGGLVQPGRSLRLSCKASGFKFGDFALSWVRQAPGKGLEWVGFIRSRRSGGTTEYVASVKGRFIISREDSKSIAYLQMNSLKTEDTAVYYCTRERMIDTGVGGHWGQGTLVTVSS
chain 2: DIVMTQSPLSLPVTPGESASISCRSSQSLQHSNGYNYLDWYLQKPGQSPQLLIFLASNRASGVPDRFSASGSGTDFTLHISRVEAEDVGVYYCLQGLQTPFTFGPGTKVDIK
Question: Which results are given for B3?
Answer: mRNA display binding score [1]: inactive: -0.0214; mRNA display binding score [2]: inactive: -0.523

B4: W85-1C01 (protein)
chain 1: QVQLQESGPRLVKPSETLSLTCTVSGGSISTTNYYWGWIRQTPGKGLEYIGSVSYSGKPYYNPSLRGRVTISVDTSKTQFSLTVISVTAADTAVYYCTRQAEGGWYGGFSNSWGQGTLVTVSS
chain 2: DIQMTQSPSTLSASVGDRVTITCRASQSISSWLAWYQQKAGKAPKLLIYKASTLEVGVPSRFSGRGSGTEFTLTISSLQPDDFATYYCQQYDSYLTFGGGTKVEIK
Question: With B4 as the binder, how does the “mRNA display binding score” value [1] read?
Answer: Its value is inactive: 0.914.

Question: And the “mRNA display binding score” value [2]?
Answer: The value was inactive: -4.1e-06.

B5: AG1-E04 (protein)
chain 1: VQLVESGGGVVQPGRSLRLSCSASGFTFRSFAMHWVRQAPGRGLEWVAVMWIDGRGKDYADSVKGRFTISRDNSKSTLYLQMNNLRAEDTAVYYCARDQATKGLKPWGQGTLVTVSS
chain 2: DIQMTQSPSSLSASVGDKITITCRASQSISTYLNWYQQKPGTAPKLLIYAASSLQSGVPSRFSGSGSGTGFTLTISSLQPEDFATYYCQQSYSTPYTFGQGTKVEIK
Question: Which “mRNA display binding score” value [1] does the source give for B5 here?
Answer: The value was inactive: -0.537.

Question: What about the “mRNA display binding score” value [2] of the same binder?
Answer: The value was inactive: -0.422.

B6: C2-3-G05 (protein)
chain 1: VQLQESGPGLVKPSETLSLTCTVSGGSISYSNFYWGWIRQPPGKGLEWIGSVYYSGTTYYNPSLKSRVTISIDTSKNQISLKLNFVTAADTALYYCSRLQPYTNYGRSHYYFYALDVWGQGTTVTVSS
chain 2: EIVLTQSPVTLSLSPGERATLSCRASQSIATSLAWYQHKPGQTPRLLIFDASERATGIPARFSGSGSGTDFTLTISSLEPEDFAVYYCQERSNWPRLTFGGGTKVEIK
Question: For B6, which “mRNA display binding score” value [1] is on record?
Answer: The value was inactive: 1.01.

Question: And the “mRNA display binding score” value [2]?
Answer: The value was inactive: 0.839.

B7: K77-1E03 (protein)
chain 1: LVQLQESGPGLVKPSETLSLTCTVSDGSISNYYWSWIRQPPGKGLEWIGYIFYSGSTNYNPSLKSRVSISVDTSKNQFSLKLRSVTAADTAVYYCARRQGWFHNAFDIWGQGTMVIVSS
chain 2: DIQMTQSPSSLSASVGDRVTITCRASQSIYSYLSWYQQKPGKAPKLLIYAASSLQSGVPSRFSGSGSGTDFTLTISSLQPEDFASYYCQQSYTTPRTFGQGTKLEIK
Question: Which “mRNA display binding score” value [1] does the source give for B7 here?
Answer: The value was inactive: 0.164.

Question: And the “mRNA display binding score” value [2]?
Answer: Its value is inactive: -0.188.

B8: W85-3B05 (protein)
chain 1: EVQLMESGGGVVHPGRSLRLSCAASGFTFSSYAMHWVRQAPGKGLEWVAIISHDGSNKYYADSLKGRFTISRENSRSMVYLHVSSLRTEDTAVYYCARDLCSTSSCYVDHWGQGTLVTVSS
chain 2: DIQMTQSPSSLSASVGDRVTIICRASQGVSNWLAWYQQKPGKAPKSLIYAASALQSGVPSRFSGSGSGTEFSLTISNLQPEDFATYYCQQYNSYPLTFGGGTKVEIK
Question: What does the source list for B8?
Answer: mRNA display binding score [1]: inactive: 0.29; mRNA display binding score [2]: inactive: -0.391

B9: K77-2H12 (protein)
chain 1: EVQLVESGGGLVQPGGSLRLSCAASGFTFTNYWMTWVRQAPGKGLEWVANIKQDGSDKNYVDSLKGRFTISRDNAKKSLFLQMNSLGAEDTAVYYCARDFSDFGDLYFDYWGQGALVTVSS
chain 2: QSALTQPRSVSGSPGQSVTVSCTGTRSDVGGYNYVSWYQQHPGKAPKLIIYDVSERPSGVPDRFSGSKSGNTASLTISGLQAEDEADYYCCSYAGSYTWVFGGGTKLT
Question: How did the “mRNA display binding score” value [1] turn out when B9 was run?
Answer: The value was inactive: -0.168.

Question: What about the “mRNA display binding score” value [2] of the same binder?
Answer: The value was inactive: 2.64.

B10: 014-10-3F03 (protein)
chain 1: QVQLVESGGGVVQPGRSLRLSCAASGFTFSNHGMHWVRQAPGKGLEWVAVISFDGRKEYYANSVTGRFTISRDNSKNTLYLQLNSLRPEDTAFYYCAKDSYNGNREGGMDVWGQGTTVTVSS
chain 2: QSALTQPRSVSGSPGQSVTISCTGTSSDVGYYNYVSWYQQEPGKATKLMIYEVTKRPSGVPDRFSGSKSGNTASLTISGLQGEDEADYYCFSYAGRYTWVFGGGTKLTVL
Question: How did the “mRNA display binding score” value [1] turn out when B10 was run?
Answer: Its value is inactive: -0.908.

Question: What about the “mRNA display binding score” value [2] of the same binder?
Answer: The value was inactive: 3.37.
